Experimental data taken from the supplement of paper PMC12230231.

Test system: SIVsab (simian immunodeficiency virus of sabaeus monkeys), single-cycle GFP reporter, in CRFK cells
Assay: enrichment among uninfected cells over input (fold); higher = stronger restriction
Settings: library: human / rhesus combinations
Procedure: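 Pools of CRFK cells expressing variants of the TRIM5α v1 loop were challenged with the single-cycle reporter, sorted by GFP and sequenced; mean of two replicates.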

**Q.** How did the enrichment turn out when “MASGILVNVKEEVTCPICLELLTQPLSLDCGHSFCQACLTANHKKSMLDKGESSCPVCRISYQPENIRPNRHVANIVEKLREVKLSPEGQKVDHCARHGEKLLLFCQEDGKVICWLCERSQEHRGHHTFLTEEVAREYQVKLQAALEMLRQKQQEAEELEADIREEKASWKTQIQYDKTNVLADFEQLRDILDWEESNELQNLEKEEEDILKSLTNSETEMVQQTQSLRELISDLEHRLQGSVMELLQGVDGVIKRTENVTLKKPETFPKNQRRVFRAPDLKGMLEVFRELTDVRRYWVDVTVAPNNISCAVISEDKRQVSSPKPQIIYQAPGTRFTFPSFVNFNYCTGILGSQSITSGKHYWEVDVSKKTAWILGVCAGFQPDAMCNIEKNENYQPKYGYWVIGLEEGVKCSAFQDSSFHTPSVPFIVPLSVIICPDRVGVFLDYEACTVSFFNITNHGFLIYKFSHCSFSQPVFPYLNPRKCGVPMTLCSPSS [human TRIM5α, 330-340 = QAPGTRFTFPSFV]” was run?
**A.** Its enrichment is 0.186 ± 0.0088.

**Q.** With “MASGILVNVKEEVTCPICLELLTQPLSLDCGHSFCQACLTANHKKSMLDKGESSCPVCRISYQPENIRPNRHVANIVEKLREVKLSPEGQKVDHCARHGEKLLLFCQEDGKVICWLCERSQEHRGHHTFLTEEVAREYQVKLQAALEMLRQKQQEAEELEADIREEKASWKTQIQYDKTNVLADFEQLRDILDWEESNELQNLEKEEEDILKSLTNSETEMVQQTQSLRELISDLEHRLQGSVMELLQGVDGVIKRTENVTLKKPETFPKNQRRVFRAPDLKGMLEVFRELTDVRRYWVDVTVAPNNISCAVISEDKRQVSSPKPQIIYGARGTLFTFQTFVNFNYCTGILGSQSITSGKHYWEVDVSKKTAWILGVCAGFQPDAMCNIEKNENYQPKYGYWVIGLEEGVKCSAFQDSSFHTPSVPFIVPLSVIICPDRVGVFLDYEACTVSFFNITNHGFLIYKFSHCSFSQPVFPYLNPRKCGVPMTLCSPSS [human TRIM5α, 330-340 = GARGTLFTFQTFV]” as the sequence, how does the enrichment read?
**A.** The enrichment was 0.124 ± 0.17.

**Q.** With “MASGILVNVKEEVTCPICLELLTQPLSLDCGHSFCQACLTANHKKSMLDKGESSCPVCRISYQPENIRPNRHVANIVEKLREVKLSPEGQKVDHCARHGEKLLLFCQEDGKVICWLCERSQEHRGHHTFLTEEVAREYQVKLQAALEMLRQKQQEAEELEADIREEKASWKTQIQYDKTNVLADFEQLRDILDWEESNELQNLEKEEEDILKSLTNSETEMVQQTQSLRELISDLEHRLQGSVMELLQGVDGVIKRTENVTLKKPETFPKNQRRVFRAPDLKGMLEVFRELTDVRRYWVDVTVAPNNISCAVISEDKRQVSSPKPQIIYQARGTLFTFPTFVNFNYCTGILGSQSITSGKHYWEVDVSKKTAWILGVCAGFQPDAMCNIEKNENYQPKYGYWVIGLEEGVKCSAFQDSSFHTPSVPFIVPLSVIICPDRVGVFLDYEACTVSFFNITNHGFLIYKFSHCSFSQPVFPYLNPRKCGVPMTLCSPSS [human TRIM5α, 330-340 = QARGTLFTFPTFV]” as the sequence, how does the enrichment read?
**A.** The enrichment was 0.356 ± 0.0092.

**Q.** Which enrichment does the source give for “MASGILVNVKEEVTCPICLELLTQPLSLDCGHSFCQACLTANHKKSMLDKGESSCPVCRISYQPENIRPNRHVANIVEKLREVKLSPEGQKVDHCARHGEKLLLFCQEDGKVICWLCERSQEHRGHHTFLTEEVAREYQVKLQAALEMLRQKQQEAEELEADIREEKASWKTQIQYDKTNVLADFEQLRDILDWEESNELQNLEKEEEDILKSLTNSETEMVQQTQSLRELISDLEHRLQGSVMELLQGVDGVIKRTENVTLKKPETFPKNQRRVFRAPDLKGMLEVFRELTDVRRYWVDVTVAPNNISCAVISEDKRQVSSPKPQIIYGARGTRFPSLVNFNYCTGILGSQSITSGKHYWEVDVSKKTAWILGVCAGFQPDAMCNIEKNENYQPKYGYWVIGLEEGVKCSAFQDSSFHTPSVPFIVPLSVIICPDRVGVFLDYEACTVSFFNITNHGFLIYKFSHCSFSQPVFPYLNPRKCGVPMTLCSPSS [human TRIM5α, 330-340 = GARGTRFPSLV]” here?
**A.** Its enrichment is 0.304 ± 0.43.

**Q.** How did the enrichment turn out when “MASGILVNVKEEVTCPICLELLTQPLSLDCGHSFCQACLTANHKKSMLDKGESSCPVCRISYQPENIRPNRHVANIVEKLREVKLSPEGQKVDHCARHGEKLLLFCQEDGKVICWLCERSQEHRGHHTFLTEEVAREYQVKLQAALEMLRQKQQEAEELEADIREEKASWKTQIQYDKTNVLADFEQLRDILDWEESNELQNLEKEEEDILKSLTNSETEMVQQTQSLRELISDLEHRLQGSVMELLQGVDGVIKRTENVTLKKPETFPKNQRRVFRAPDLKGMLEVFRELTDVRRYWVDVTVAPNNISCAVISEDKRQVSSPKPQIIYQARGTRFPTLVNFNYCTGILGSQSITSGKHYWEVDVSKKTAWILGVCAGFQPDAMCNIEKNENYQPKYGYWVIGLEEGVKCSAFQDSSFHTPSVPFIVPLSVIICPDRVGVFLDYEACTVSFFNITNHGFLIYKFSHCSFSQPVFPYLNPRKCGVPMTLCSPSS [human TRIM5α, 330-340 = QARGTRFPTLV]” was run?
**A.** The enrichment was 0.628 ± 0.89.

**Q.** Which enrichment does the source give for “MASGILVNVKEEVTCPICLELLTQPLSLDCGHSFCQACLTANHKKSMLDKGESSCPVCRISYQPENIRPNRHVANIVEKLREVKLSPEGQKVDHCARHGEKLLLFCQEDGKVICWLCERSQEHRGHHTFLTEEVAREYQVKLQAALEMLRQKQQEAEELEADIREEKASWKTQIQYDKTNVLADFEQLRDILDWEESNELQNLEKEEEDILKSLTNSETEMVQQTQSLRELISDLEHRLQGSVMELLQGVDGVIKRTENVTLKKPETFPKNQRRVFRAPDLKGMLEVFRELTDVRRYWVDVTVAPNNISCAVISEDKRQVSSPKPQIIYQAPGTRFQSFVNFNYCTGILGSQSITSGKHYWEVDVSKKTAWILGVCAGFQPDAMCNIEKNENYQPKYGYWVIGLEEGVKCSAFQDSSFHTPSVPFIVPLSVIICPDRVGVFLDYEACTVSFFNITNHGFLIYKFSHCSFSQPVFPYLNPRKCGVPMTLCSPSS [human TRIM5α, 330-340 = QAPGTRFQSFV]” here?
**A.** The enrichment was 0.546 ± 0.74.

Same assay, conditions: library: insertions and deletions

**Q.** Which enrichment does the source give for “MASGILVNVKEEVTCPICLELLTQPLSLDCGHSFCQACLTANHKKSMLDKGESSCPVCRISYQPENIRPNRHVANIVEKLREVKLSPEGQKVDHCARHGEKLLLFCQEDGKVICWLCERSQEHRGHHTFLTEEVAREYQVKLQAALEMLRQKQQEAEELEADIREEKASWKTQIQYDKTNVLADFEQLRDILDWEESNELQNLEKEEEDILKSLTNSETEMVQQTQSLRELISDLEHRLQGSVMELLQGVDGVIKRTENVTLKKPETFPKNQRRVFRAPDLKGMLEVFRELTDVRRYWVDVTVAPNNISCAVISEDKRQVSSPKARGTRYQTFVNFNYCTGILGSQSITSGKHYWEVDVSKKTAWILGVCAGFQPDAMCNIEKNENYQPKYGYWVIGLEEGVKCSAFQDSSFHTPSVPFIVPLSVIICPDRVGVFLDYEACTVSFFNITNHGFLIYKFSHCSFSQPVFPYLNPRKCGVPMTLCSPSS [human TRIM5α, 6-codon deletion at 325]” here?
**A.** Its enrichment is 0.983 ± 0.048.

**Q.** For “MASGILVNVKEEVTCPICLELLTQPLSLDCGHSFCQACLTANHKKSMLDKGESSCPVCRISYQPENIRPNRHVANIVEKLREVKLSPEGQKVDHCARHGEKLLLFCQEDGKVICWLCERSQEHRGHHTFLTEEVAREYQVKLQAALEMLRQKQQEAEELEADIREEKASWKTQIQYDKTNVLADFEQLRDILDWEESNELQNLEKEEEDILKSLTNSETEMVQQTQSLRELISDLEHRLQGSVMELLQGVDGVIKRTENVTLKKPETFPKNQRRVFRAPDLKGMLEVFRELTDVRRYWVDVTVAPNNISCAVISEDKRQVSSPKPQIIYGARGTFNYCTGILGSQSITSGKHYWEVDVSKKTAWILGVCAGFQPDAMCNIEKNENYQPKYGYWVIGLEEGVKCSAFQDSSFHTPSVPFIVPLSVIICPDRVGVFLDYEACTVSFFNITNHGFLIYKFSHCSFSQPVFPYLNPRKCGVPMTLCSPSS [human TRIM5α, 7-codon deletion at 335]”, which enrichment is on record?
**A.** The enrichment was 0.762 ± 0.059.

**Q.** “MASGILVNVKEEVTCPICLELLTQPLSLDCGHSFCQACLTANHKKSMLDKGESSCPVCRISYQPENIRPNRHVANIVEKLREVKLSPEGQKVDHCARHGEKLLLFCQEDGKVICWLCERSQEHRGHHTFLTEEVAREYQVKLQAALEMLRQKQQEAEELEADIREEKASWKTQIQYDKTNVLADFEQLRDILDWEESNELQNLEKEEEDILKSLTNSETEMVQQTQSLRELISDLEHRLQGSVMELLQGVDGVIKRTENVTLKKPETFPKNQRRVFRAPDLKGMLEVFRELTDVRRYWVDVTVAPNNISCAVISEDKRQVSSPKPQIIYGTFVNFNYCTGILGSQSITSGKHYWEVDVSKKTAWILGVCAGFQPDAMCNIEKNENYQPKYGYWVIGLEEGVKCSAFQDSSFHTPSVPFIVPLSVIICPDRVGVFLDYEACTVSFFNITNHGFLIYKFSHCSFSQPVFPYLNPRKCGVPMTLCSPSS [human TRIM5α, 7-codon deletion at 331]” was tested. Which enrichment did it give?
**A.** Its enrichment is 0.723 ± 0.03.

**Q.** With “MASGILVNVKEEVTCPICLELLTQPLSLDCGHSFCQACLTANHKKSMLDKGESSCPVCRISYQPENIRPNRHVANIVEKLREVKLSPEGQKVDHCARHGEKLLLFCQEDGKVICWLCERSQEHRGHHTFLTEEVAREYQVKLQAALEMLRQKQQEAEELEADIREEKASWKTQIQYDKTNVLADFEQLRDILDWEESNELQNLEKEEEDILKSLTNSETEMVQQTQSLRELISDLEHRLQGSVMELLQGVDGVIKRTENVTLKKPETFPKNQRRVFRAPDLKGMLEVFRELTDVRRYWVDVTVAPNNISCAVISEDKRQVSSPKPQIIYGARGTRYQTFVCTGILGSQSITSGKHYWEVDVSKKTAWILGVCAGFQPDAMCNIEKNENYQPKYGYWVIGLEEGVKCSAFQDSSFHTPSVPFIVPLSVIICPDRVGVFLDYEACTVSFFNITNHGFLIYKFSHCSFSQPVFPYLNPRKCGVPMTLCSPSS [human TRIM5α, 4-codon deletion at 341]” as the sequence, how does the enrichment read?
**A.** The enrichment was 0.646 ± 0.08.

**Q.** How did the enrichment turn out when “MASGILVNVKEEVTCPICLELLTQPLSLDCGHSFCQACLTANHKKSMLDKGESSCPVCRISYQPENIRPNRHVANIVEKLREVKLSPEGQKVDHCARHGEKLLLFCQEDGKVICWLCERSQEHRGHHTFLTEEVAREYQVKLQAALEMLRQKQQEAEELEADIREEKASWKTQIQYDKTNVLADFEQLRDILDWEESNELQNLEKEEEDILKSLTNSETEMVQQTQSLRELISDLEHRLQGSVMELLQGVDGVIKRTENVTLKKPETFPKNQRRVFRAPDLKGMLEVFRELTDVRRYWVDVTVAPNNISCAVISEDKRQVSSPKPQIIYGARGTRYQTFGTRYQTFVNFNYCTGILGSQSITSGKHYWEVDVSKKTAWILGVCAGFQPDAMCNIEKNENYQPKYGYWVIGLEEGVKCSAFQDSSFHTPSVPFIVPLSVIICPDRVGVFLDYEACTVSFFNITNHGFLIYKFSHCSFSQPVFPYLNPRKCGVPMTLCSPSS [human TRIM5α, 7-codon duplication at 333]” was run?
**A.** The enrichment was 0.362 ± 0.35.

**Q.** Which enrichment does the source give for “MASGILVNVKEEVTCPICLELLTQPLSLDCGHSFCQACLTANHKKSMLDKGESSCPVCRISYQPENIRPNRHVANIVEKLREVKLSPEGQKVDHCARHGEKLLLFCQEDGKVICWLCERSQEHRGHHTFLTEEVAREYQVKLQAALEMLRQKQQEAEELEADIREEKASWKTQIQYDKTNVLADFEQLRDILDWEESNELQNLEKEEEDILKSLTNSETEMVQQTQSLRELISDLEHRLQGSVMELLQGVDGVIKRTENVTLKKPETFPKNQRRVFRAPDLKGMLEVFRELTDVRRYWVDVTVAPNNISCAVISEDKRQVSSPKPQIIYGARGTRYQQTFVNFNYCTGILGSQSITSGKHYWEVDVSKKTAWILGVCAGFQPDAMCNIEKNENYQPKYGYWVIGLEEGVKCSAFQDSSFHTPSVPFIVPLSVIICPDRVGVFLDYEACTVSFFNITNHGFLIYKFSHCSFSQPVFPYLNPRKCGVPMTLCSPSS [human TRIM5α, 1-codon duplication at 337]” here?
**A.** Its enrichment is 0.302 ± 0.088.

± gives the standard deviation of the averaged measurements. Restriction of a single-cycle SIVsab GFP reporter by TRIM5α v1-loop variants in CRFK cells. Human variants: read share among cells still uninfected after two challenges over input, higher = gained restriction. Rhesus variants: share among infected cells over input, higher = lost restriction. Reporter dose not given per row. No active / inactive call per row; the paper calls a change when both replicates lie above its controls (mean + 2 SD of stop or wild-type variants, or the top frameshift score). Residues outside the varied loop are taken from Swiss-Prot. The paper reads the human single-substitution scores as noise; they and the rhesus combinations repeat poorly (rank correlation 0.3 to 0.4), indel scores repeat only for the top variants, rhesus substitutions well (0.9).
